Measurements as given in PubChem BioAssay AID488969 (Vanderbilt High Throughput Screening Facility, 2010).
Whole data set: some 110,000 compounds, median “z-score” near -0.1, cut for the highest 2% near 2. The list shows a part of the results. Calls of active or inactive are those of the source.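 How the source made its calls: active means z-score in the third read window above 3 or below -3; inactive means the rest.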

What follows are molecules tested against Metabotropic glutamate receptor 8 (Rattus norvegicus) (UniProt P70579) (assay: mGluR8 Gi/Go-coupled signaling modulation – cell-based, rat, thallium flux, HTS, primary screen (AID 488969)). Conditions: HEK293 rat mGluR8, GIRK (G protein-gated inwardly rectifying potassium channel) thallium flux, FluoZin2; at 10 µM; stronger effect = higher value; submaximal glutamate (EC20) added with thallium.
Sequence of UniProt P70579 (P70579 whole entry, looked up): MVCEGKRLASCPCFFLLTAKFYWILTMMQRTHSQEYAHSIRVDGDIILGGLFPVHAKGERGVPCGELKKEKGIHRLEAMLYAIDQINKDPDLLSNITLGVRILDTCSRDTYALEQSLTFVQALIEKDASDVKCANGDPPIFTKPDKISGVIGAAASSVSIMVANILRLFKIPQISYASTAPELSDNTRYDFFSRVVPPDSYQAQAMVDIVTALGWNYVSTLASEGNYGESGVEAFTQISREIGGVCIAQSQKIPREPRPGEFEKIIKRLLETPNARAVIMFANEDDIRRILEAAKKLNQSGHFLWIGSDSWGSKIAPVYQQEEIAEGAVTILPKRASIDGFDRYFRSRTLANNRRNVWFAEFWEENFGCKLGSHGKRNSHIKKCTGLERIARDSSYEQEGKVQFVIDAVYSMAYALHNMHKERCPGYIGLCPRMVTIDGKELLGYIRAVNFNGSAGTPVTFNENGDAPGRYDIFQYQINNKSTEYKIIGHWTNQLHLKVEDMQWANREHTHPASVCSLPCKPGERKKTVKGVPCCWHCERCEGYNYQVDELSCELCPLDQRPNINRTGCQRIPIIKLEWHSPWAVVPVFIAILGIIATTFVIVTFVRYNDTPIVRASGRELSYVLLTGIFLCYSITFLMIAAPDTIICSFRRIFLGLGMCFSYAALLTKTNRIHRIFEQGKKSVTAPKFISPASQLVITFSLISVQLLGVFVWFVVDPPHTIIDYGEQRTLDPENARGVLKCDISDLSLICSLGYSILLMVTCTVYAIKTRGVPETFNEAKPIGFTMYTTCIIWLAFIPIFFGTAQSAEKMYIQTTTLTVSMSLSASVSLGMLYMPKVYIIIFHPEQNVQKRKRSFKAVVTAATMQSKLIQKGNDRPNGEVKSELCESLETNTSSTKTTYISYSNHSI

| Structure (SMILES) | z-score |
| --- | --- |
| CC(C)(C)c1nnc(N/N=C/c2ccc(Br)cc2)n(N)c1=O | 0.0626 |
| COC(=O)[C@H](CC(C)C)NC(=O)Nc1ccc2c(c1)OCCO2 | active: 3.6 |
| Cc1nnc(SCC(=O)N/N=C/c2ccc(-c3ccc(C)c(Cl)c3)o2)s1 | -0.286 |
| N#CCC1c2ccccc2CCN1C(=O)Nc1ccc(C(F)(F)F)cc1 (stereo not given) | -0.886 |
| CN(c1ccc([N+](=O)[O-])cc1C(=O)Nc1ccccc1)C1CCCCC1 | -0.377 |
| COC(=O)c1ccc(CSc2nc3ccccc3c(=O)n2CC(C)C)o1 | -0.177 |
| CN(Cc1ccccc1)S(=O)(=O)c1ccc(NC(=S)NC(=O)C2CCCCC2)cc1 | -0.0674 |
| CC(=O)Nc1nonc1-c1nc2ccccc2n1CC1CC1 | 0.025 |
| Cc1ccc(NC(=O)/C(C#N)=C/c2cc(C)n(-c3ccc(N4CCOCC4)c([N+](=O)[O-])c3)c2C)c(C)c1 | -0.136 |
| CC1=C(C(=O)Nc2ccc(C)cc2C)C(c2ccc([N+](=O)[O-])cc2)n2ncnc2N1 (stereo not given) | -0.3 |
| CCN1CCCC1CN=Cc1c(O)n(-c2ccccc2)c(=O)c2ccccc12 (stereo not given) | 0.201 |
| O=C(NCc1ccncc1)C(=O)Nc1nc(C23CC4CC(CC(C4)C2)C3)cs1 | 0.792 |
| COc1ccc(OC)c(NC(=O)c2ccccc2NS(=O)(=O)c2cccc3cccnc23)c1 | 0.685 |
| C=CCN(C(=O)Nc1ccc(Cl)cc1)C1CC(=O)N(c2ccc(OC)cc2)C1=O (stereo not given) | -0.0352 |
| Cc1ccsc1/C=N/n1c(COc2ccccc2)n[nH]c1=S | 0.533 |
| NNC(=O)[C@H]1C[C@@H]1c1ccccc1 | 0.22 |
| COc1cccc(N=c2oc3ccccc3cc2-c2nc3ccccc3[nH]2)c1 | -0.0872 |
| CCOC(=O)c1ccc(N2CN(CC)CNC2=S)cc1 | -0.43 |
| COc1ccc(-n2c(COc3ccc(C)cc3)nnc2SCc2ccc(C#N)cc2)cc1 | 0.0959 |
| Brc1ccc(-c2cn3cccnc3n2)cc1 | 0.165 |
| Cc1cc(-n2ccnc2)n2c(nc3ccccc32)c1C#N | -0.209 |
| N#Cc1c(NC(=S)NC(=O)c2ccccc2)sc2c1CCN(CCc1ccccc1)C2 | 0.0665 |
| O=C(Nc1ccn(Cc2ccccc2F)n1)c1ccc(COc2cc(Cl)ccc2Cl)o1 | -0.856 |
| COC(CNC(=O)c1ccc2nc(-c3cccs3)c(-c3cccs3)nc2c1)OC | -0.619 |
| Cc1cccc2cc(-c3ccccc3)c(-c3ccccc3)c[n+]12 | -0.127 |
| CN(C)S(=O)(=O)N1CCN(C(=O)c2ccccc2Cl)CC1 | 0.0266 |
| Cc1[nH][nH]c(=O)c1C(c1cc([N+](=O)[O-])ccc1O)c1c(C)[nH][nH]c1=O | -0.177 |
| CCOC(=O)c1sc2nc(C(C)C)c3c(c2c1N)CCC3 | 0.0566 |

| Structure (SMILES) | z-score |
| --- | --- |
| CCc1ccccc1NC(=O)c1cc2ncc(Br)cn2n1 | -0.0287 |
| CCOC(=O)c1c(C)nc2sc(C(=O)Nc3ccccc3)c(N)c2c1-c1ccc(OC)cc1 | -0.197 |
| CCOC(=O)CCC(=O)NCc1ccc2[nH]c(C)cc2c1 | 0.305 |
| O=C1CC(N2CCN(c3ccc(O)cc3)CC2)C(=O)N1Cc1cccs1 (stereo not given) | -0.238 |
| C=CCN1C(=O)/C(=C2\SC(N3CCOCC3)=NC2=O)c2cc(Br)ccc21 | 0.982 |
| Cc1ccc(C(=O)NCCCN2CCOCC2)o1 | -0.201 |
| Cc1cccc(-c2nsc(SCC(=O)c3ccc(Cl)cc3)n2)c1 | -0.116 |
| Cc1c(C(N)=O)sc2ncn(CC(=O)N3CCC(C)CC3)c(=O)c12 | -0.00147 |
| COC(=O)CSc1nc2nc(C)c(Br)cc2[nH]1 | -0.305 |
| CCCCNC(=O)C(=O)NC(C)CCc1ccccc1 (stereo not given) | -0.0461 |
| O=C(NCCC1=CCCCC1)C1CC(=O)N(C2CCCCCC2)C1 (stereo not given) | -0.362 |
| COc1ccccc1NC(=S)N1CCN(Cc2ccc3c(c2)OCO3)CC1 | -0.224 |
| COc1ccc(S(=O)(=O)NC2(C(F)(F)F)N=C3SCCN3C2=O)cc1 (stereo not given) | 0.0322 |
| Cc1ccc(-c2nnc(SCC(=O)Nc3sc(C)c(C)c3C#N)n2C)cc1 | 0.241 |
| O=C(CN1CCN(c2ccc(O)cc2)CC1)Nc1ccc(SC(F)F)cc1 | -0.296 |
| CSc1nc2ncc3c(n2n1)CC1c2ccccc2CCN1C3=O (stereo not given) | -0.305 |
| O=[N+]([O-])c1cc(/C=N/N2CCN(C3c4ccccc4-c4ccccc43)CC2)ccc1Cl | 0.148 |
| CCn1c(=O)c(C(=O)Nc2ccccc2C)c(O)c2ccccc21 | -0.15 |
| CN1CCc2nc(SCC(=O)Nc3ccc(Cl)cc3)c(C#N)cc2C1 | 0.131 |
| CC(C)Oc1ccc(C(CC(=O)N(C)CCC#N)c2ccc(F)cc2)cc1 (stereo not given) | -0.362 |
| CCCC1C(C(=O)OCC)=C(C)NC(C)=C1C(=O)OCC | -0.94 |
| O=C(c1cc2cc(Cl)cc(Cl)c2oc1=O)N1CCOCC1 | -0.472 |
| COc1ccc(OCC(=O)N2CCN(c3nnc(-c4ccccc4)c4ccccc34)CC2)cc1 | 0.267 |
| O=C(Nc1nc2c(s1)CCCC2)c1ccc(S(=O)(=O)N2CCCc3ccccc32)cc1 | 0.0595 |
| Cc1ccc(C(=O)Nc2ncc(Cc3ccc(SC(F)F)cc3)s2)cc1 | -0.155 |
| O=C(CCCC(=O)N(CC(=O)NC1CCCC1)Cc1ccc2c(c1)OCO2)Nc1ccccn1 | 1.89 |
| Cc1cc(C)nc(-n2nc(C)cc2NC(=O)CN2CCc3ccccc3C2)n1 | -0.502 |
